Results taken from PubChem BioAssay AID2202238 (Ras Initiative Chemistry Research Team, Frederick National …, 2025).
Screen size: about 2,200 compounds; fewer than 10 were called active. This is one part of the list. Where no call is shown, the source marks the result inconclusive.

target: GTPase KRas (Homo sapiens) (UniProt P01116); assay: Fragment capture on engineered cysteines, share of protein labelled (AID 2202238); set-up: protein at 5 µM with 500 µM competing thiol for 1.5 h; details: KRAS G12D cysteine mutants, disulfide tethering, MALDI-TOF labeling; stronger effect = higher value; H27C mutant labeling; fragment at 500 µM
UniProt P01116, sequence (P01116 whole entry, looked up, the tested form may be a part): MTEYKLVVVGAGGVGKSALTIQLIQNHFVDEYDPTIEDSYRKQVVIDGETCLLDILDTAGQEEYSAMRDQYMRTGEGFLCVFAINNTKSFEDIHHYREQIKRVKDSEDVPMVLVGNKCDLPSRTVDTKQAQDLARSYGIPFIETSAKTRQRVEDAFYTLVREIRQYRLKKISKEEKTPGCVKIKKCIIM

| SMILES | percent labeling [%] |
| --- | --- |
| O=C(NCCS)C1CN=C(c2ccccc2)NC1 (stereo not given) | 49.4 |
| O=C(CC(N1CCOCC1)C(F)(F)F)NCCS (stereo not given) | 33.5 |
| O=C(CCS)NCCNC(=O)Cn1ccc(C(F)(F)F)n1 | 32.6 |
| N#Cc1ccc(-c2ccc3c(c2)N(C(=O)CCS)CCO3)cc1 | 46.5 |
| O=C(CCS)NCc1cc(COc2ccccc2F)on1 | 35.2 |
| O=C(NCCS)c1c(Cl)cccc1Oc1ccccc1Cl | 21.3 |
| Cc1cc(C(=O)NCCS)ccc1-n1cnnn1 | 32.1 |
| O=C(CCS)NC[C@@H]1Cc2ccccc2CO1 | 40.1 |
| O=C(CC(O)(c1nc2ccccc2s1)C(F)(F)F)NCCS (stereo not given) | 16.4 |
| COc1ccc(CCNC(=O)CCS)cc1Br | 39.2 |
| CCC(C)n1ncc2c(C(=O)NCCS)cc(C)nc21 (stereo not given) | 36.4 |
| O=C(CCS)N(Cc1nc2ccccc2c(=O)[nH]1)CC1CCCO1 (stereo not given) | 35.2 |
| Cc1sc2ncnc(N3CCC(C(=O)NCCS)CC3)c2c1C | 49.1 |
| O=C(NCCS)c1cc(-c2ccc3c(c2)CCO3)no1 | 17.6 |
| O=C(CCS)Nc1cc(F)c(F)cc1N1CCOCC1 | 41.3 |
| O=C(NCCS)c1cnnn1Cc1ccccc1 | 36.7 |
| O=C(CCS)NCCNc1ncccc1C(F)(F)F | 44.3 |
| O=C(NCCS)c1cc(-c2ccc(Cl)cc2)ns1 | 18.9 |
| Cn1cc(-c2ccccc2)nc1C(=O)NCCS | 22.4 |
| O=C(CCS)NC1CC(c2cccc(Cl)c2)C1 (stereo not given) | 18.1 |
| O=C(Cn1c(=O)[nH]c2ccccc2c1=O)NCCS | 36.1 |
| O=C(CCOc1cccc(Cl)c1Cl)NCCS | 26.5 |
| O=C(Cn1cnc2c(oc3ccccc32)c1=O)NCCS | 29.6 |

| SMILES | percent labeling [%] |
| --- | --- |
| CCc1c(C(=O)NCCS)nnn1Cc1ccccc1 | 35.7 |
| Cn1c(=O)[nH]c2ncc(-c3cccc(C(=O)NCCS)c3)cc21 | 29.7 |
| Cc1nn(CC(F)F)c(C)c1NC(=O)CCS | 32.4 |
| N#Cc1ccc(N2CCCC2C(=O)NCCS)cc1 (stereo not given) | 17.5 |
| Cc1nc(-c2ccc(C(=O)NCCS)cc2)n[nH]1 | 46 |
| O=C(CCS)N1CCN(C(=O)c2cc(Cl)c[nH]2)CC1 | 52.8 |
| Cc1cc(-c2cc(C(=O)NCCS)c3c(C)noc3n2)c(C)o1 | 16.7 |
| Cc1cc(C(=O)NCCS)c(C)n1Cc1ccccc1 | 15.7 |
| Cc1nnnn1-c1ccc(C(=O)NCCS)c(F)c1 | 43.9 |
| Cc1noc2nc(C(C)C)cc(C(=O)NCCS)c12 | 31.3 |
| Cc1c(CNC(=O)CCS)oc2ccc(Cl)cc12 | 31.5 |
| O=C(NCCS)C1(C2CCCCC2)CCCCC1 | 24.9 |
| O=C(NCCS)c1cc(=O)[nH]c2cc(F)ccc12 | 24 |
| NC(=O)N1CCc2ccc(NC(=O)CCS)cc21 | 30 |
| O=C(NCCS)c1nc2c(Br)cccn2n1 | 53.4 |
| Cc1cnc(C2(NC(=O)CCS)CCOCC2)[nH]1 | 34.1 |
| O=C(NCCS)c1cccc(-c2ccccc2)n1 | 35 |
| COC1CCn2cc(C(=O)NCCS)nc2C1 (stereo not given) | 29.9 |
| O=C(NCCS)c1ccn(-c2cccc(F)c2)n1 | 40.4 |
| CC(C)N(CC(=O)N1CCCCCC1)C(=O)CCS | 34.6 |
| CN(C)C(=O)Cn1cccc(C(=O)NCCS)c1=O | 39.8 |
| NS(=O)(=O)c1ccc(C(=O)NCCS)cc1 | 44.7 |
| O=C(CC1NC(=O)N(c2ccc(F)cc2)C1=O)NCCS (stereo not given) | 34.9 |

| SMILES | percent labeling [%] |
| --- | --- |
| CCCN(CC(=O)Nc1ccccc1OC)C(=O)CCS | 39.3 |
| Cn1c(C(F)(F)F)nc2cc(C(=O)NCCS)ccc21 | 29.9 |
| O=C(CCS)Nc1nnc(-c2ccccc2)s1 | 16.9 |
| O=C(CCS)NCc1ccc(Oc2ccccc2)nc1 | 39 |
| O=C(NCCS)c1csc(-c2cnn(-c3ccccc3)n2)n1 | 13.7 |
| Cc1ccc(-n2nc(C)c(C(=O)NCCS)n2)c(C)c1 | 35 |
| CCc1c(C)nn(-c2cccc(C(=O)NCCS)c2)c1C | 31 |
| Cc1nccn1-c1cc(C(=O)NCCS)ccn1 | 46 |
| CN(CCCc1[nH]nc(N)c1C#N)C(=O)CCS | 43.3 |
| O=C(CCS)N1CC2(CC(C(F)F)=NO2)C1 | 32.4 |
| Cc1nc2[nH]n(C)c(=O)c2c(C)c1CCC(=O)NCCS | 32.4 |
| Cn1nc(C(=O)NCCS)cc1C1CC1 | 52.2 |
| COc1ccc2[nH]cc(CC(=O)NCCS)c2c1 | 22.3 |
| CN(Cc1ccc(Cl)cc1Oc1ccc(Cl)cc1)C(=O)CCS | 18.8 |
| O=C(NCCS)c1cccnc1-n1cc(Br)cn1 | 36 |
| O=C(NCCS)c1cnn(C2CCCOC2)c1C(F)(F)F (stereo not given) | 36.4 |
| O=C(NCCS)c1ccc2[nH]cnc2n1 | 51.8 |
| COc1cc(NC(=O)CCS)c(OC)cc1CCNC(C)=O | 41.5 |
| O=C(CCc1ccccc1N1CCOCC1)NCCS | 29.5 |
| N#Cc1ccc(N2CCC(C(=O)NCCS)CC2)c(F)c1 | 23 |
| O=C(CCS)NC1CCN(C2CCOCC2)CC1 | 46.9 |
| O=C(Cc1cnccc1C(F)(F)F)NCCS | 36.1 |
| Cc1cccc(CC(=O)NCCS)c1Br | 35.4 |

| SMILES | percent labeling [%] |
| --- | --- |
| O=C(CCS)NC1CC(O)(C(F)(F)F)C1 (stereo not given) | 30.6 |
| O=C(CCS)NCCCc1cn[nH]c1C(F)(F)F | 46.6 |
| O=C(CCS)NC1CCc2ccccc2-n2ccnc21 (stereo not given) | 44.5 |
| COc1ccc2c(c1)CCN(C(=O)CCS)C2 | 35.6 |
| O=C(CCS)NC1CC(N2CCOCC2)C1 (stereo not given) | 30.4 |
| CCCC(NC(=O)CCS)c1ncc(-c2ccc3c(c2)OCO3)[nH]1 (stereo not given) | 30.6 |
| COc1cccc(N2CCN(C(=O)CCS)CC2)c1 | 32.7 |
| Cc1nn(COc2ccc(F)cc2)c(C)c1NC(=O)CCS | 38.8 |
| CN1C(=O)COc2ccc(C(=O)NCCS)cc21 | 45.9 |
| CC(=O)N(Cc1ccsc1)C1CC12CCN(C(=O)CCS)CC2 (stereo not given) | 39.5 |
| O=C(NCCS)c1cc2ccccc2[nH]c1=O | 35.1 |
| O=C(CCS)N1CCN(c2ccncc2F)CC1 | 45.8 |
| COc1sccc1C(=O)NCCS | 51 |
| Cc1cn(-c2ccccc2)nc1C(=O)NCCS | 31.2 |
| CC(C)C(C(=O)NCCS)n1cnc2cc(F)c(F)cc21 (stereo not given) | 30.1 |
| O=C(NCCS)C(F)(F)C1(O)CCCCCC1 | 33.8 |
| Cc1nc(C2CCN(C(=O)CCS)CC2)c2n1CCN(C)C2 | 44.9 |
| O=C(Nc1ccccc1O)C1CCN(C(=O)CCS)CC1 | 40.1 |
| CC(C)(C)C(NC(=O)CCS)c1nc(-c2ncn[nH]2)no1 (stereo not given) | 37.8 |
| COc1ccc(C(F)(F)C(=O)NCCS)cc1 | 26.9 |
| O=C(NCCS)C(O)Cc1ccccc1Cl (stereo not given) | 33 |
